{"source": "PubChem BioAssay AID1347073", "about": "(National Center for Advancing Translational Sciences (NCATS), 2019)", "note": "Hit rate of the full screen: of about 45,000 compounds, about 200 (0.44%) were called active. Inconclusive results (about 7%) are left out. Calls follow the shape of the dose curve; as a rule, active = well fitted activation curve with a large enough effect; inconclusive = small, poorly fitted or top-dose-only effect; inactive = no such curve, though single readings can be large or run the other way. Some of the results follow.", "data": [{"experiment": "qHTS of TDP-43 Inhibitors: NCGC Sytravon Library Screen; also: 0% is about no effect; nearly all actives have a fitted effect of over 55% in size", "conditions": "yeast TDP-43 toxicity rescue, BacTiter-Glo growth, 24 h; series mostly up to 46.1 µM; growth rescue (activation): at the top concentration", "summary_of_the_method": "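TDP-43-expressing yeast, pregrown in raffinose, seeded at OD600 0.02 in galactose medium with compound for 24 hr at 30 deg C. Growth read by BacTiter-Glo luminescence, so rescue of toxicity appears as activation.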", "values": [{"smiles": "Cc1ccc(S(=O)(=O)N2CCCC(C(=O)NCC(C)C)C2)cc1", "note": "(centres undefined)", "growth rescue (activation)": "inactive: 13.4%"}, {"smiles": "Cc1nnnn1CC(=O)Nc1ccccc1[N+](=O)[O-]", "growth rescue (activation)": "inactive: 14.6%"}, {"smiles": "COC(=O)c1cc(NC(=S)N2CCN(c3ccccn3)CC2)cc(C(=O)OC)c1", "growth rescue (activation)": "inactive: 17.8%"}, {"smiles": "CCOC(=O)c1cc(S(=O)(=O)NC2CCN(C(=O)OCC)CC2)cn1C", "growth rescue (activation)": "inactive: -13%"}, {"smiles": "O=C(COC(=O)c1cccnc1Cl)Nc1cc(S(=O)(=O)N2CCCCCC2)ccc1Cl", "growth rescue (activation)": "inactive: 30.8%"}, {"smiles": "Cc1cc(NC(=O)COc2cccc(Oc3ccccc3)c2)no1", "growth rescue (activation)": "inactive: -8.59%"}, {"smiles": "C/C(=C\\C(=O)c1sccc1Cl)N(C)C", "growth rescue (activation)": "inactive: -6.24%"}, {"smiles": "CC(O)CCC(=O)NNC1CC(=O)N(c2ccccc2)C1=O", "note": "(centres undefined)", "growth rescue (activation)": "inactive: 18.7%"}, {"smiles": "NNc1nc(-c2ccccc2)cs1", "growth rescue (activation)": "inactive: 5.02%"}, {"smiles": "O=S(=O)(Nc1ccccc1Br)c1cccs1", "growth rescue (activation)": "inactive: 18.6%"}, {"smiles": "CCN(CC)S(=O)(=O)c1ccc(C)c(NC(=O)CSc2nc3ccc(C)cc3[nH]2)c1", "growth rescue (activation)": "inactive: 10.6%"}, {"smiles": "Cc1ccc(NC(=O)C(C)N=C2NS(=O)(=O)c3ccccc32)cc1F", "note": "(centres undefined)", "growth rescue (activation)": "inactive: -11.1%"}, {"smiles": "COc1ccccc1N1CCN(CCNC(=O)Nc2cccc(C)c2C)CC1", "growth rescue (activation)": "inactive: -3.5%"}, {"smiles": "COCCn1c(=O)[nH]c(=O)c2c1nc(-c1ccc(-c3ccc(Cl)cc3[N+](=O)[O-])o1)n2Cc1ccccc1", "growth rescue (activation)": "inactive: 20%"}, {"smiles": "COC(=O)CCCC(=O)N(C)CC1CCCN(CCc2ccccc2C)C1", "note": "(centres undefined)", "growth rescue (activation)": "inactive: -5.55%"}, {"smiles": "Cc1ccc(S(=O)(=O)c2nc(-c3cccs3)oc2N2CCC(C(N)=O)CC2)cc1", "growth rescue (activation)": "inactive: -3.17%"}, {"smiles": "COc1ccccc1CNC(=O)C(C)c1ccc([N+](=O)[O-])cc1", "note": "(centres undefined)", "growth rescue (activation)": "inactive: 11.2%"}, {"smiles": "O=C(NCc1ccccc1Cl)c1cc(=O)[nH]c2ccccc12", "growth rescue (activation)": "inactive: 10.9%"}, {"smiles": "Cc1ccccc1NC(=O)N1CCc2cc(S(=O)(=O)N3CCC(C)CC3)ccc21", "growth rescue (activation)": "inactive: 5.17%"}, {"smiles": "Cc1ccc(Nc2nc3ccccc3s2)cc1", "growth rescue (activation)": "inactive: 20.5%"}, {"smiles": "COc1cc(/C=C/C(=O)O)cc(S(=O)(=O)Nc2cc(Cl)c(Cl)cc2Cl)c1OC", "growth rescue (activation)": "inactive: -1.99%"}, {"smiles": "CC(=O)Nc1cncc(-c2cccc(C(=O)N(C)C)c2)n1", "growth rescue (activation)": "inactive: 16.6%"}, {"smiles": "O=C(NNC(=O)c1cc2ccccc2cc1O)c1cccs1", "growth rescue (activation)": "inactive: 4.69%"}, {"smiles": "COc1ccc(CCNC(=O)CCC(=O)Nc2nnc(C(C)C)s2)cc1OC", "growth rescue (activation)": "inactive: -1.39%"}, {"smiles": "CC(C)c1csc(CN2CCN(Cc3ccccc3)C(CCO)C2)n1", "note": "(centres undefined)", "growth rescue (activation)": "inactive: -3.02%"}, {"smiles": "Cc1ccsc1/C=N/n1cnnc1", "growth rescue (activation)": "inactive: 8.91%"}, {"smiles": "O=C1c2ccccc2C(=O)N1Cc1ccccc1F", "growth rescue (activation)": "inactive: 6.47%"}, {"smiles": "COc1ccccc1NC(=S)NCC1CCCO1", "note": "(centres undefined)", "growth rescue (activation)": "inactive: 6.75%"}, {"smiles": "CN1CCN(Cc2nc3ccccc3c(=O)n2Cc2nc(-c3ccc4ccccc4c3)cs2)CC1", "growth rescue (activation)": "inactive: -15.6%"}, {"smiles": "COc1cc(C(=O)NCc2ncccc2C)ccc1OC1CCN(C(C)=O)CC1", "growth rescue (activation)": "inactive: 4.45%"}, {"smiles": "Cc1cc2oc(=O)cc(CN3CCOCC3)c2cc1O", "growth rescue (activation)": "inactive: 17.4%"}, {"smiles": "Cc1cc([N+](=O)[O-])ccc1NC(=O)Nc1ccccc1F", "growth rescue (activation)": "inactive: 2.38%"}, {"smiles": "C=CCN1C(=O)/C(=C/C=C2/N(CC)c3ccc(S(=O)(=O)N(C)C)cc3N2CC)SC1=S", "growth rescue (activation)": "inactive: -14.4%"}, {"smiles": "COc1ccccc1/C=C\\C(=O)NCC(=O)N/N=C(/C)c1cccc([N+](=O)[O-])c1", "growth rescue (activation)": "inactive: 5.37%"}, {"smiles": "O=C(NC1CCCCCC1)c1cccc(S(=O)(=O)N2CCOCC2)c1", "growth rescue (activation)": "inactive: 5.41%"}, {"smiles": "Cc1ccc(N=Cc2c(O)n(-c3nccs3)c(=O)c3ccccc23)c(C)c1", "growth rescue (activation)": "inactive: 8.9%"}, {"smiles": "O=C(CSc1nncs1)NCCCc1ccccc1", "growth rescue (activation)": "inactive: -1.7%"}, {"smiles": "CC(=O)Nc1ccc(NC(=O)C2CCCN2S(=O)(=O)c2cccc3nsnc23)cc1", "note": "(centres undefined)", "growth rescue (activation)": "inactive: 7.66%"}, {"smiles": "CC(C)NC(=O)C1(C)CCN1C(=O)c1c(F)cccc1F", "note": "(centres undefined)", "growth rescue (activation)": "inactive: 10.4%"}, {"smiles": "COC(=O)c1ccccc1NC(=O)CSc1nc(C)cc(C)n1", "growth rescue (activation)": "inactive: 5.98%"}, {"smiles": "Nc1nc(SCc2ccccc2)n[nH]1", "growth rescue (activation)": "inactive: -2.05%"}, {"smiles": "CN(C)c1ccc(-c2nnn(CC(=O)Nc3ccc4c(c3)OCCO4)n2)cc1", "growth rescue (activation)": "inactive: 10.4%"}, {"smiles": "Cc1cc(C)c(NC(=O)C[N+](C)(C)CC(O)COc2cccc3ccccc23)c(C)c1", "note": "(centres undefined)", "growth rescue (activation)": "inactive: 11.8%"}, {"smiles": "Cc1ccccc1C(=O)Nc1ccnn1C1CCN(CCCc2ccccc2)CC1", "growth rescue (activation)": "inactive: 13.4%"}, {"smiles": "CCCCN1C(=O)C(=O)N(CC(=O)Nc2ccc(OC(F)(F)F)cc2)C1=O", "growth rescue (activation)": "inactive: 10.3%"}, {"smiles": "O=C(COc1ccc(S(=O)(=O)NC2CCCC2)cc1)N1CCCCC1", "growth rescue (activation)": "inactive: 5.91%"}, {"smiles": "Cc1ccc(S(=O)(=O)N(Cc2n[nH]c(=S)n2-c2ccccc2)c2ccccc2)cc1", "growth rescue (activation)": "inactive: 20.2%"}, {"smiles": "CCOc1ccccc1N1CCN(C(=O)COc2ccc3c(C)cc(=O)oc3c2)CC1", "growth rescue (activation)": "inactive: 13.8%"}, {"smiles": "CCc1nc2c(OCc3ccc4c(c3)OCO4)cccn2c1N(C=O)Cc1ccc(OC)cc1", "growth rescue (activation)": "inactive: 3.34%"}, {"smiles": "CCc1cccc(N(C(=O)c2csnn2)C(C(=O)NC2CCCC2)c2cccnc2)c1", "note": "(centres undefined)", "growth rescue (activation)": "inactive: 10.6%"}, {"smiles": "COc1ccc(C(=O)Oc2ccc(C(=S)N3CCOCC3)cc2)cc1", "growth rescue (activation)": "inactive: 37.4%"}, {"smiles": "CCCNC(=O)C1(C)CCN(Cc2csc(-c3ccc(Cl)cc3)n2)C1", "note": "(centres undefined)", "growth rescue (activation)": "inactive: 13%"}, {"smiles": "CCOc1cc(N2CCOCC2)c(OCC)cc1NC(=O)CSc1nnc(N)s1", "growth rescue (activation)": "inactive: 14.9%"}, {"smiles": "C/C(=N\\S(=O)(=O)c1ccc(C)cc1)Nc1cc(C(C)C)c(O)cc1C", "growth rescue (activation)": "inactive: 4.59%"}, {"smiles": "CCOC(=O)Cc1ccc2sc(-c3ccccc3)nc2c1", "growth rescue (activation)": "inactive: 4.73%"}, {"smiles": "N#C/C(=C\\c1c(N2CCC(C(N)=O)CC2)nc2ccccn2c1=O)S(=O)(=O)c1ccc(Cl)cc1", "growth rescue (activation)": "inactive: 2.5%"}, {"smiles": "COc1ccc(NS(=O)(=O)c2ccc(C)c(NC(=O)NC3CCCCC3)c2)cc1", "growth rescue (activation)": "inactive: -0.859%"}, {"smiles": "Cc1cc2oc(=O)cc(C)c2cc1NC(=O)CCl", "growth rescue (activation)": "inactive: -13.8%"}, {"smiles": "CCNC(=S)N1CCC(C(O)(c2ccccc2)c2ccccc2)CC1", "growth rescue (activation)": "inactive: 7.77%"}, {"smiles": "Cc1ccc(C2(C)NC(=O)N(CC(=O)Nc3cc(S(=O)(=O)N4CCOCC4)ccc3C)C2=O)cc1", "note": "(centres undefined)", "growth rescue (activation)": "inactive: 11.5%"}, {"smiles": "COc1ccc(-c2nn(-c3ccccc3C)cc2CNC(C)Cn2cncn2)cc1F", "note": "(centres undefined)", "growth rescue (activation)": "inactive: 0.549%"}, {"smiles": "COc1ccc(CCn2c(NN)nc3c2c(=O)[nH]c(=O)n3C)cc1", "growth rescue (activation)": "inactive: 4.29%"}, {"smiles": "CN(C)S(=O)(=O)Oc1ccc(Cl)cc1C(=O)Nc1ccc(F)cc1F", "growth rescue (activation)": "inactive: 16%"}, {"smiles": "O=C(NC1CCOc2ccccc21)c1ccc(Cl)nc1", "note": "(centres undefined)", "growth rescue (activation)": "inactive: 12.4%"}, {"smiles": "Cc1ccc(CN2C(=O)C(F)(F)Oc3ccccc32)cc1", "growth rescue (activation)": "inactive: 39.2%"}, {"smiles": "CC(=O)c1cccc(NC(=O)COC(=O)c2ccccn2)c1", "growth rescue (activation)": "inactive: 13.3%"}, {"smiles": "O=C(CSc1nc2ccccc2c(=O)n1CCCN1CCOCC1)Nc1cccc(S(=O)(=O)N2CCCCCC2)c1", "growth rescue (activation)": "inactive: -15.3%"}, {"smiles": "COc1ccc(/C=C2\\C(=O)NC(=S)N2C(=O)c2ccc(C)cc2)cc1", "growth rescue (activation)": "inactive: 2.21%"}, {"smiles": "O=C(COC(=O)c1cccnc1Cl)NC(=O)c1ccc(OC(F)F)cc1", "growth rescue (activation)": "inactive: -12.4%"}]}]}
